According to PubChem BioAssay AID1346428 (National Center for Advancing Translational Sciences (NCATS), 2018):
Where “and” joins values, the source holds several entries; their conditions need not be identical. Equal entries are not always repeated. About 1,200 (2.5%) of roughly 48,000 compounds were called active. Another 2% or so got no clear call; they are omitted.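 How the source made its calls: active means activation of at least 60% and not above a set upper limit (about 1 call in 100 departs from these limits); inconclusive means activation of 40% to 60%, or above that upper limit; inactive means activation under 40%.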 The list shows a part of the results.

What follows are compounds tested against Probable G-protein coupled receptor 32 (Homo sapiens) (UniProt O75388) (assay: qHTS for Agonists of Human Resolvin D1 Receptor DRV1). Settings: CHO-K1 GPR32 beta-arrestin PathHunter luminescence, 90 min; at 76.9 µM; hits give high values; zero percent set by DMSO-only wells.
In short: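 Agonism was scored as beta-arrestin recruitment to ProLink-fused GPR32 in stably transfected CHO-K1 cells, giving a chemiluminescent beta-Gal signal; compounds were incubated 90 min at 37 °C.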
Further: 0% is about no effect.

UniProt O75388, sequence (O75388 whole entry, looked up, the tested form may be a part): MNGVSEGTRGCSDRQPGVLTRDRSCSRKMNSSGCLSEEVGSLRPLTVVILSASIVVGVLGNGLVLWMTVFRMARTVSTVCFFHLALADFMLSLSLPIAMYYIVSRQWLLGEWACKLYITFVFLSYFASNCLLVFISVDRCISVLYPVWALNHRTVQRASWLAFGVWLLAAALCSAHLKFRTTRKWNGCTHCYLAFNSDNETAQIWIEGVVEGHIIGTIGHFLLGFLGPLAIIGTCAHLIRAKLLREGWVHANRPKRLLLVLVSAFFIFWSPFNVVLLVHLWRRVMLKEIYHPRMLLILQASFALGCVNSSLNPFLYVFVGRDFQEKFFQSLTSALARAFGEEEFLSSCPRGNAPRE

activation, inactive:
Cc1ccccc1OCCCn1c(-c2ccc(Cl)cc2)nc2ccccc2c1=O -0.14%
COc1ccc(Nc2nc3cc(Cl)c(Cl)cc3n3cnnc23)cc1Cl -2.75%
Cn1c(=O)oc2cc(S(=O)(=O)N3CCC(C(=O)NCc4ccc(F)cc4)CC3)ccc21 29.1%
COc1ccc(NC(=O)CC2C(=O)N(c3ccc(C)cc3)C(=O)N2Cc2ccc3c(c2)OCO3)cc1 (stereo not given) -3.19%
Cc1ccccc1Cn1nnc2c(=O)[nH]c(C3CCCN(C(=O)c4ccc(F)cc4)C3)nc21 (stereo not given) -10.6%
CC1CCN(CCCNC(=O)c2cn(C)c3ccc(S(=O)(=O)N(C)C4CCCCC4)cc3c2=O)CC1 4.78%
COc1cc2c(cc1OC)C(COc1ccc(C(C)C)cc1)N(C(=O)c1ccc(S(=O)(=O)N3CCCC3)cc1)CC2 (stereo not given) -4.29%
COc1ccc(N2CCN(S(=O)(=O)c3ccc4c(c3)CCCN4C(C)=O)CC2)cc1 9.74%
CCC(C)n1c(SCc2c(F)cccc2Cl)nc2ccsc2c1=O (stereo not given) -17.6%
Cc1ccc(C)c(CN2C(=O)c3ccccc3S(=O)c3ccc(C(=O)N4CCN(c5ccccc5F)CC4)cc32)c1 (stereo not given) -1.26%
COc1cc(N2C(=O)CSC23C(=O)N(Cc2ccc(C)cc2)c2ccccc23)cc(OC)c1OC (stereo not given) -7.3%
Cc1ccc2c(c1)N(C(=O)CCC(=O)NCc1cccs1)CCO2 -12%
COc1ccc(Br)c(C(=O)Nc2cc3c(cc2N2CCCCC2)n(C)c(=O)c(=O)n3C)c1 0.0826%
CCc1cc(C(=O)NC(C)c2ccccc2)no1 (stereo not given) -5.37%
CCc1ccc(-c2nc3cc(NC(=O)c4cc5ccccc5cc4OC)ccc3o2)cc1 21.8%
COC(=O)c1cc(NC(=O)[C@H](CCS(C)(=O)=O)N2Cc3ccccc3C2=O)cc(C(=O)OC)c1 -9.08%
COc1cc(C2CC(=O)N(Cc3ccc(F)cc3)c3ccccc3S2)cc(OC)c1OC (stereo not given) 16.6%
COc1cc2c(cc1OC)C(COc1ccc(F)cc1)N(C(=O)c1ccc(S(=O)(=O)N3CCCC3)cc1)CC2 (stereo not given) 12%
COC(=O)c1ccccc1NC(=O)c1ccc2nc(Cc3ccccc3)oc2c1 -17.7%
COC(=O)c1ccccc1NC(=O)c1nc(S(=O)(=O)Cc2cccc(C)c2)ncc1Cl 4.39%
O=C(CCCn1c(=O)c2ccccc2n(Cc2ccc(F)cc2Cl)c1=O)NCCc1ccc(Cl)cc1 -17.4%
Cc1ccc(-n2nc(CO)c(C(=O)NCc3cccs3)n2)cc1C -5.5%
Cc1cccc(NC(=O)c2c(C)cc(C)nc2SCC(=O)Nc2c(C)cc(C)cc2C)c1 -24.1%
CCOc1ccc(-c2cc(-c3nc(-c4cc(OC)c(OC)c(OC)c4)no3)[nH]n2)cc1Cl 6.77%
COc1cc(-c2noc(-c3ccc(N4CCCC4)c([N+](=O)[O-])c3)n2)cc(OC)c1OC 1.25%
CC(=O)N1CCc2c(sc3c2c(=O)n(Cc2ccccc2)c(=O)n3Cc2cccc(Cl)c2)C1 3.93%
COC(=O)c1ccc(Nc2nc(-c3ccc(C)cc3)nc3ccccc23)cc1 4.39%
CC(=O)O[C@H]1C[C@@H]2CC[C@@H]3[C@H](CC[C@@]4(C)[C@H]3C[C@H]([N+]3(C)CCCCC3)[C@@H]4OC(C)=O)[C@@]2(C)C[C@@H]1[N+]1(C)CCCCC1 -4.33%
COc1ccc(-c2cn3nc(N4CCC(C(=O)NCc5cccc(Cl)c5)CC4)sc3n2)cc1 -2.43%
CC1=Nc2cc(C(=O)NC3CCC(C)CC3)ccc2Sc2c(C)ccc(C)c21 (stereo not given) -0.201%
COc1cc(C(=O)N2CCc3c([nH]c4ccccc34)C2c2ccc(F)cc2)cc(OC)c1OC (stereo not given) -31.5%
Cc1ccccc1Cn1cnc2c(oc3ccccc32)c1=O -24.3%
CCC(=O)N1CCc2cc(CNC(=O)Cc3ccc(OC)c(OC)c3)ccc21 -14.6%
CCOc1ccccc1CNC(=O)C1CCN(C(=O)N2CCOc3ccc(Cl)cc32)CC1 -3.44%
CCN(CC)C(=O)Cn1ncc2c([nH]c3ccc(C)cc32)c1=O -30.6%
COc1ccc(NC(=O)c2ccc3c(c2)N(Cc2cccc(Cl)c2)C(=O)c2ccccc2S3(=O)=O)cc1Cl -12%
FC(F)(F)c1ccc2c(c1)ncc1c(-c3ccccc3)nn(-c3ccccc3)c12 0.0603%
Cc1ccc(-n2nc(C(=O)NCc3ccc(F)cc3Cl)c3c4ccccc4n(C)c3c2=O)cc1 11.6%
Cc1cccc(N2CCN(c3nc4ccc(C(=O)c5ccccc5)cc4n4cnnc34)CC2C)c1 (stereo not given) -8.97%
Cc1cc(C)n2nc(-c3ccc(Cl)cc3)nc2n1 -0.308%
Cc1cn2c(=O)cc(COC(=O)c3cccc(NC(=O)COc4ccccc4)c3)nc2s1 -22.6%
CCOC(=O)c1c(NC(=O)CSc2cn(CCNC(=O)c3ccc(OC)c(OC)c3)c3ccccc23)sc2c1CCC2 -3.65%
COc1ccc(OC)c(NC(=O)c2oc3c(c2C)-c2nn(Cc4ccc(Cl)cc4)cc2CC3)c1 -9.84%
O=C1c2c(O)ccc(O)c2C(=O)c2c(NCCNCCO)ccc(NCCNCCO)c21 -19.9% and -33.9%
CC(C)Oc1ccc(CNC(=O)c2ccc(CS(=O)Cc3ccccc3Cl)o2)cc1 (stereo not given) 11.5%
COC(=O)CN1C(=O)CSc2ccc(S(=O)(=O)Nc3ccccc3)cc21 -11.2%
Cc1cccc(OCCSc2nc3ccc(NC(=O)COc4ccccc4C)cc3s2)c1 3.1%
CC(=O)Nc1ccc(NC(=O)Cn2cc3c(n2)CCCCC3)cc1 -7.27%
Cc1ccc2c(CC(=O)N3CCN(c4cccc(Cl)c4)CC3)coc2c1C -35.7%
CCN(CC)S(=O)(=O)c1ccc2c(c1)c(=O)c(C(=O)NCCc1ccc(OC)c(OC)c1)cn2C 4.41%
